Laboratory results as given in the supplement of paper PMC3724861.
The other results are listed elsewhere or left out.

tested on: T1, Caupolican (Caup) homeodomain DNA-binding domain; assay: PBM E-score (8-mer, recovered from the published 9-mer minima) (E-score (dimensionless, -0.5 to 0.5)); Drosophila protein; higher = stronger relative binding preference, active = 0.31 or more
T1 sequence: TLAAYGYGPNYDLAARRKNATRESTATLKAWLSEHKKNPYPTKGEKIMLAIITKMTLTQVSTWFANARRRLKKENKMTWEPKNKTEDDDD
Procedure, shortened: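 Caup's homeodomain DNA-binding domain (residues 214-303) was made by in vitro transcription and translation and applied at 100 nM to custom-designed protein binding microarrays. Each value is an enrichment score that gives relative binding preference for a short DNA word, with higher meaning stronger. The 8-mer values were recovered from published 9-mer scores, each of which was the minimum of its two constituent 8-mer scores. A cutoff of 0.31 marks candidate sites.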

Sequence	PBM E-score
ACGGTTCC	inactive: -0.0912
GACCGCAC	inactive: -0.162
TGGCACCA	inactive: -0.0957
CTTATCGC	inactive: -0.0366
ACCTAAAG	inactive: -0.0479
CCAAACCG	inactive: -0.0831
GTCAAGAC	inactive: 0.0237
ATGCGCCA	≥ -0.0376
AGACGTTC	inactive: 0.0591
ATTCTGCA	inactive: -0.0106
ATCTGGGC	inactive: -0.228
GCTCCGAC	inactive: -0.0988
CAAGATGA	inactive: 0.0249
TAACGGGA	inactive: -0.00726
ACCCAAGG	inactive: -0.0724
TATCAGCA	inactive: 0.0861
ATCGACTA	≥ 0.114
CAAGTTCG	inactive: -0.0609
CTGTAATC	inactive: 0.162
AGAGATCA	≥ 0.0775
ATCGAAAT	inactive: 0.0069
ACGGAACT	inactive: 0.0381
AGACCAGC	inactive: -0.163
ACTCCGTA	inactive: -0.112

Sequence	PBM E-score
CGGACGAC	inactive: 0.0284
ATATGTAA	active: 0.34
ATAATGGG	inactive: 0.0526
CAAGATAA	inactive: 0.224
AGACAATG	inactive: 0.194
AACAGGAC	inactive: 0.169
AACCGCCG	inactive: -0.174
AGTAAAGC	inactive: -0.00784
TCCTTTCA	inactive: -0.0369
ACGATCGG	inactive: 0.00215
CCTGAGAC	inactive: -0.134
CGCCGTTC	inactive: -0.0675
AGGGACCC	inactive: -0.284
CATATATA	inactive: 0.28
GAGCTACA	inactive: 0.0656
ACTCTATA	inactive: 0.0364
CATCGTAA	inactive: 0.0727
GGTCATCA	inactive: -0.0416
ACTCACGC	inactive: -0.109
AGGTGTCC	inactive: 0.118
AAGAAAGT	inactive: 0.0101
AACCGTTA	inactive: 0.119
GACCCATA	inactive: 0.0231
GATAATGA	inactive: 0.0499

Sequence	PBM E-score
AAATGCGC	inactive: -0.0155
GTGCAATA	inactive: 0.0575
CCACTACA	inactive: 0.172
CATTGCTA	inactive: 0.148
CCTCTTAA	inactive: -0.0401
ACAAGTAG	active: 0.351
AACTCTAC	inactive: -0.0301
CAACCAAA	inactive: 0.0298
AGGGAGAA	inactive: -0.0592
CTCACATC	inactive: 0.0686
CCCAAAGG	inactive: -0.265
CGTAAGTA	inactive: 0.0813
AGATAAGC	inactive: 0.0155
AAGGTCTG	inactive: -0.0658
ATTTCGCA	≥ 0.07
CCAATTCG	inactive: 0.0118
AGTAAGCC	inactive: -0.0941
ATCAAAAG	inactive: 0.0698
AGGCCAGG	inactive: -0.267
CTAATATA	inactive: 0.254
AAGACGCC	inactive: -0.156
CTGACAAG	active: 0.341
GGAACCCC	inactive: -0.198
CTGTCAAG	inactive: -0.017
